# Results are given in words; binding and its absence hold for the method and conditions named. In cells and extracts the contact can be indirect. Some results given as binding are weak or reduced against the parent protein; the word gives no strength. For some assays here: Sequences can lack the tags named with a protein.
# Protein sequences, listed by entry. Tags and fused reporters are not part of them.
# UniProt P58462: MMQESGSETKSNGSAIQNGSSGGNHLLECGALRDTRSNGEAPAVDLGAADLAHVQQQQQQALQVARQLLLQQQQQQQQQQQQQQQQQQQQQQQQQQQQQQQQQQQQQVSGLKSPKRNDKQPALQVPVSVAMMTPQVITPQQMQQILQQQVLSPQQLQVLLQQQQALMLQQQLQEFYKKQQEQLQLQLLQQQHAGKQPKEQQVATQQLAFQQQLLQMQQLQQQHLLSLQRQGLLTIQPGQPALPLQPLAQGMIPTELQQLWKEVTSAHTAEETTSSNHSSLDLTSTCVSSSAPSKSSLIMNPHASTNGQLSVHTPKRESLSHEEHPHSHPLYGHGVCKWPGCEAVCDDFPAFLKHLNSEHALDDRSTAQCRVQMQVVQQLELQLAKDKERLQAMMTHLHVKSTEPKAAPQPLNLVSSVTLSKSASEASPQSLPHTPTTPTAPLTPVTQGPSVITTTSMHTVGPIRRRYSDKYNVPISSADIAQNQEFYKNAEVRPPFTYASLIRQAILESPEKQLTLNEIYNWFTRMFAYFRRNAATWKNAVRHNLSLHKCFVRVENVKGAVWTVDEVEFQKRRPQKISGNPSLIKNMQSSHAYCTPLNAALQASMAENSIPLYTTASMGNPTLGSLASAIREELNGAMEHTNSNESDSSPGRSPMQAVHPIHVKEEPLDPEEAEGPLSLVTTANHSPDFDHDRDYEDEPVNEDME
# UniProt O15409: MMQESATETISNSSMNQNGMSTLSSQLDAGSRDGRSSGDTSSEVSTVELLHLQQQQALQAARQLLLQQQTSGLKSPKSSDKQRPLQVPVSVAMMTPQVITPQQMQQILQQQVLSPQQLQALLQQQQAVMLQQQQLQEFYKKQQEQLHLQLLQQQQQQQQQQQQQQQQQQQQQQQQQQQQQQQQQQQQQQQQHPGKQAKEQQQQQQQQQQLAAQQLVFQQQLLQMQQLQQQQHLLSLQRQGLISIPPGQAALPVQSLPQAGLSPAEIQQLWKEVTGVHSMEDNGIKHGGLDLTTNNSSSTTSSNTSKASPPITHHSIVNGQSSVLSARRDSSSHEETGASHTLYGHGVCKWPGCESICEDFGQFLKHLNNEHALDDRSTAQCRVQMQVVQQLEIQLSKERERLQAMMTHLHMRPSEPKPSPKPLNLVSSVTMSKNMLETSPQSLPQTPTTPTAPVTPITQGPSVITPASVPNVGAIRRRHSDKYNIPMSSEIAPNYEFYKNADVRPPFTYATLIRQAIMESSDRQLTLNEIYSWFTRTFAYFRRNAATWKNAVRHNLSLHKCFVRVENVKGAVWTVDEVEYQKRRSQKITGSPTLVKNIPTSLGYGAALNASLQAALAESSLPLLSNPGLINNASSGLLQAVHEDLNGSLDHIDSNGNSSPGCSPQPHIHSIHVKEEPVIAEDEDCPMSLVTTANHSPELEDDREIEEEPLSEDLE
# Assays:
# Myc-CtBP2 = Myc-CtBP2 (UniProt P56545); assay: co-IP; U2OS cells transiently transfected; tagged CtBP1 or CtBP2 immunoprecipitated, protein G-sepharose, 4 °C; lysis buffer 20 mM Tris-HCl pH 7.5, 100 mM NaCl, 0.5% NP-40; without or with co-expressed MCRIP1 (increasing amounts of vector)
# [1] = target: endogenous Foxp1 (mouse lung) (mouse (endogenous in lung)) (UniProt P58462); assay: co-IP; lung lysates from Mcrip1-/- mice; endogenous Foxp1 immunoprecipitated, co-precipitated CtBP1 detected by immunoblotting
# [2] = target: endogenous Foxp1 (mouse lung) (mouse (endogenous in lung)) (UniProt P58462); assay: condition: only in lung lysates from Mcrip1+/+ mice (endogenous MCRIP1 present); co-IP; lung lysates from Mcrip1+/+ mice (MCRIP1 present); endogenous Foxp1 immunoprecipitated, CtBP1 probed by immunoblotting
Molecule,binding (Myc-CtBP2),binding [1],binding [2]
Flag-Foxp2 (from UniProt O15409 1-715),binds,–,–
"Flag-MCRIP1 (protein, UniProt C9JLW8 1-97) MTSSPVSRVVYNGKRTSSPRSPPSSSEIFTPAHEENVRFIYEAWQGVERDLRGQVPGGERGLVEEYVEKVPNPSLKTFKPIDLSDLKRRSTQDAKKS",binds,–,–

# Now from value to molecule:
binding (Myc-CtBP2),binding [1],binding [2],Molecule
–,binds,no binding,endogenous CtBP1 (mouse lung) (from UniProt O88712 1-441)
binds,–,–,"Flag-Foxp1 (protein, UniProt Q9H334 1-677) MMQESGTETKSNGSAIQNGSGGSNHLLECGGLREGRSNGETPAVDIGAADLAHAQQQQQQALQVARQLLLQQQQQQQVSGLKSPKRNDKQPALQVPVSVAMMTPQVITPQQMQQILQQQVLSPQQLQVLLQQQQALMLQQQQLQEFYKKQQEQLQLQLLQQQHAGKQPKEQQQVATQQLAFQQQLLQMQQLQQQHLLSLQRQGLLTIQPGQPALPLQPLAQGMIPTELQQLWKEVTSAHTAEETTGNNHSSLDLTTTCVSSSAPSKTSLIMNPHASTNGQLSVHTPKRESLSHEEHPHSHPLYGHGVCKWPGCEAVCEDFQSFLKHLNSEHALDDRSTAQCRVQMQVVQQLELQLAKDKERLQAMMTHLHVKSTEPKAAPQPLNLVSSVTLSKSASEASPQSLPHTPTTPTAPLTPVTQGPSVITTTSMHTVGPIRRRYSDKYNVPISSADIAQNQEFYKNAEVRPPFTYASLIRQAILESPEKQLTLNEIYNWFTRMFAYFRRNAATWKNAVRHNLSLHKCFVRVENVKGAVWTVDEVEFQKRRPQKISGNPSLIKNMQSSHAYCTPLNAALQASMAENSIPLYTTASMGNPTLGNLASAIREELNGAMEHTNSNESDSSPGRSPMQAVHPVHVKEEPLDPEEAEGPLSLVTTANHSPDFDHDRDYEDEPVNEDME"
